From PMC3509445 (Biology Open, 2012)

Target: ThioHis-VHL30 (full-length VHL30 thioredoxin-His fusion protein) (UniProt P40337-1)
Assay: pull-down

binding result: binds
B1: GST-TLX ΔN (Δ[…]) (domain or fragment)
chain: not shown
